In the supplement of paper PMC3334620:
The full ranking holds about 33,000 sequences; the median of “E-score (-0.5 to 0.5)” is about -0.017, and the highest 2% start at about 0.3. Some of the results follow.

Each sequence was assayed against T1, Sut1 (UniProt P53032) (assay: PBM E-score (8-mer binding enrichment) (E-score (-0.5 to 0.5)); higher = stronger / more preferred TF binding; most listed sequences are background and not binding sites). Details: protein concentration: 200 nM; construct: GST-full length.
T1 sequence: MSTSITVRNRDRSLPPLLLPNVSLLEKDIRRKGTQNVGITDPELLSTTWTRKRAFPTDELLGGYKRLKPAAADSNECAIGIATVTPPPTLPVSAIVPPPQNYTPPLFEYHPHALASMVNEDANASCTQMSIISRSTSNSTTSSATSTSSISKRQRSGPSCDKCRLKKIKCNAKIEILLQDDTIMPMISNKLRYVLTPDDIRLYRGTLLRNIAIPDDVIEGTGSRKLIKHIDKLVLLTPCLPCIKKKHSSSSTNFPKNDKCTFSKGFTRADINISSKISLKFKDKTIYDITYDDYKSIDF
Outline: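 For each ungapped eight-base word taken together with its reverse complement, the Universal PBM Analysis Suite assigned an E-score. Binding data came from GST-tagged yeast transcription factors, applied at about 100-200 nM, on universal all-10-mer Agilent arrays made double-stranded by primer extension. Fluorescent anti-GST marked bound protein, and scans were normalised with masliner.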

Question: How did the “PBM E-score” value turn out when GATGCCGC was run?
Answer: The value was -0.0952.

Question: CAGAGGTA was tested. Which “PBM E-score” value did it give?
Answer: The value was -0.0086.

Question: With GTCTTCAA as the sequence, how does the “PBM E-score” value read?
Answer: Its value is 0.00426.

Question: AAACGGCA was tested. Which “PBM E-score” value did it give?
Answer: The value was -0.0663.

Question: For ACTAGCGA, which “PBM E-score” value is on record?
Answer: The value was -0.00608.

Question: For ATACATCA, which “PBM E-score” value is on record?
Answer: The value was 0.0333.

Question: How did the “PBM E-score” value turn out when CAGACATA was run?
Answer: Its value is -0.0707.

Question: With CCGCGGAG as the sequence, how does the “PBM E-score” value read?
Answer: The value was 0.308.

Question: With CCTTCAGC as the sequence, how does the “PBM E-score” value read?
Answer: Its value is -0.182.

Question: For TCCAAGGA, which “PBM E-score” value is on record?
Answer: Its value is -0.0121.

Question: With AGTCTAGA as the sequence, how does the “PBM E-score” value read?
Answer: The value was 0.0548.

Question: For ATTGAGTG, which “PBM E-score” value is on record?
Answer: The value was 0.0241.

Question: With GATCAGGC as the sequence, how does the “PBM E-score” value read?
Answer: The value was -0.115.

Question: Which “PBM E-score” value does the source give for CTTCAGTC here?
Answer: The value was 0.0454.

Question: With TCTTCGCA as the sequence, how does the “PBM E-score” value read?
Answer: The value was 0.0465.

Question: With AACGAAGG as the sequence, how does the “PBM E-score” value read?
Answer: Its value is -0.189.

Question: TACTCCAA was tested. Which “PBM E-score” value did it give?
Answer: Its value is -0.0372.

Question: ACGTCAAC was tested. Which “PBM E-score” value did it give?
Answer: Its value is 0.0596.

Question: For GATCGACA, which “PBM E-score” value is on record?
Answer: Its value is -0.0654.

Question: How did the “PBM E-score” value turn out when ACCCTCCC was run?
Answer: Its value is -0.038.

Question: GTCGCAGA was tested. Which “PBM E-score” value did it give?
Answer: Its value is -0.015.

Question: With AATCTTGT as the sequence, how does the “PBM E-score” value read?
Answer: Its value is 0.152.

Question: How did the “PBM E-score” value turn out when CGTGCTAA was run?
Answer: The value was 0.00998.

Question: How did the “PBM E-score” value turn out when CCATTTGA was run?
Answer: The value was 0.0313.

Question: AAATGTAG was tested. Which “PBM E-score” value did it give?
Answer: The value was 0.0326.

Question: How did the “PBM E-score” value turn out when TACAATCA was run?
Answer: The value was 0.167.

Question: How did the “PBM E-score” value turn out when AAGAGATA was run?
Answer: Its value is -0.0293.

Question: For ATTCGTAC, which “PBM E-score” value is on record?
Answer: Its value is 0.154.

Question: For GATGTTCC, which “PBM E-score” value is on record?
Answer: The value was -0.0774.

Question: ACAGCTCC was tested. Which “PBM E-score” value did it give?
Answer: The value was 0.166.

Question: For GCTAATCA, which “PBM E-score” value is on record?
Answer: The value was 0.0306.

Question: Which “PBM E-score” value does the source give for AGCGTTGG here?
Answer: Its value is -0.151.

Question: GCTGCCCA was tested. Which “PBM E-score” value did it give?
Answer: The value was -0.297.

Question: Which “PBM E-score” value does the source give for AAGATGGA here?
Answer: The value was -0.116.

Question: With ATTCGCTC as the sequence, how does the “PBM E-score” value read?
Answer: Its value is 0.027.

Question: CGAAGTCA was tested. Which “PBM E-score” value did it give?
Answer: The value was -0.081.

Question: Which “PBM E-score” value does the source give for TATTGCCA here?
Answer: The value was -0.00908.

Question: For GCGCTGGA, which “PBM E-score” value is on record?
Answer: The value was -0.212.

Question: Which “PBM E-score” value does the source give for GAGCACTA here?
Answer: The value was -0.086.

Question: How did the “PBM E-score” value turn out when ATCGCAAA was run?
Answer: The value was 0.0837.

Question: AGCCGCAT was tested. Which “PBM E-score” value did it give?
Answer: The value was 0.00388.

Question: ATGAAAAG was tested. Which “PBM E-score” value did it give?
Answer: Its value is -0.0364.

Question: How did the “PBM E-score” value turn out when ACATACTA was run?
Answer: The value was 0.15.

Question: CTCTAGAC was tested. Which “PBM E-score” value did it give?
Answer: Its value is -0.0305.

Question: AACCACCA was tested. Which “PBM E-score” value did it give?
Answer: Its value is -0.0634.

Question: AACGCTTC was tested. Which “PBM E-score” value did it give?
Answer: The value was 0.0816.

Question: For ACCGCGGG, which “PBM E-score” value is on record?
Answer: Its value is 0.115.

Question: With CTAAAGAA as the sequence, how does the “PBM E-score” value read?
Answer: Its value is 0.264.

Question: With ATATGACG as the sequence, how does the “PBM E-score” value read?
Answer: The value was 0.179.

Question: Which “PBM E-score” value does the source give for CATCTCGG here?
Answer: The value was 0.234.

Question: AGAGCCAG was tested. Which “PBM E-score” value did it give?
Answer: Its value is -0.418.

Question: For AAATCGTC, which “PBM E-score” value is on record?
Answer: The value was 0.0465.

Question: For ACCACAGA, which “PBM E-score” value is on record?
Answer: Its value is -0.0524.

Question: With CACCATTA as the sequence, how does the “PBM E-score” value read?
Answer: Its value is 0.196.

Question: Which “PBM E-score” value does the source give for ACTGCTTA here?
Answer: Its value is 0.0551.

Question: Which “PBM E-score” value does the source give for CCTTGATA here?
Answer: Its value is 0.0572.

Question: ATTGCACC was tested. Which “PBM E-score” value did it give?
Answer: Its value is -0.0615.

Question: GGCGCTTA was tested. Which “PBM E-score” value did it give?
Answer: The value was -0.359.

Question: With ATCTAGCA as the sequence, how does the “PBM E-score” value read?
Answer: The value was -0.008.

Question: Which “PBM E-score” value does the source give for ATATTAAT here?
Answer: Its value is 0.253.

Question: How did the “PBM E-score” value turn out when AGCGCTTA was run?
Answer: Its value is -0.0126.

Question: Which “PBM E-score” value does the source give for ATGTGAAC here?
Answer: Its value is 0.0599.

Question: With ACGACAAC as the sequence, how does the “PBM E-score” value read?
Answer: The value was 0.0842.

Question: For TAAATTAA, which “PBM E-score” value is on record?
Answer: Its value is 0.283.

Question: For GCCTTGGA, which “PBM E-score” value is on record?
Answer: The value was -0.0418.

Question: How did the “PBM E-score” value turn out when AACTCTCT was run?
Answer: Its value is 0.0153.

Question: How did the “PBM E-score” value turn out when ACATGTAA was run?
Answer: Its value is 0.177.

Question: Which “PBM E-score” value does the source give for GTTGACTA here?
Answer: The value was -0.0477.

Question: Which “PBM E-score” value does the source give for AAAGTAGG here?
Answer: Its value is 0.152.

Question: For AGAGGCTG, which “PBM E-score” value is on record?
Answer: The value was -0.309.

Question: Which “PBM E-score” value does the source give for TAGGCCCA here?
Answer: Its value is -0.292.

Question: For CTCAAACA, which “PBM E-score” value is on record?
Answer: Its value is 0.0968.

Question: With ACTGCCCG as the sequence, how does the “PBM E-score” value read?
Answer: The value was -0.185.

Question: With ATATCTGC as the sequence, how does the “PBM E-score” value read?
Answer: The value was -0.121.

Question: ACGATAAA was tested. Which “PBM E-score” value did it give?
Answer: Its value is 0.108.

Question: How did the “PBM E-score” value turn out when ACGTCCCT was run?
Answer: Its value is -0.23.

Question: Which “PBM E-score” value does the source give for CCAAATCG here?
Answer: Its value is -0.112.

Question: CCTCAGAC was tested. Which “PBM E-score” value did it give?
Answer: The value was -0.0278.

Question: How did the “PBM E-score” value turn out when GGGGTACA was run?
Answer: The value was 0.0809.

Question: Which “PBM E-score” value does the source give for ACAATACC here?
Answer: The value was 0.0386.

Question: For AACAGGTG, which “PBM E-score” value is on record?
Answer: Its value is -0.0708.

Question: AACTTTGG was tested. Which “PBM E-score” value did it give?
Answer: Its value is 0.142.

Question: How did the “PBM E-score” value turn out when ATGTTGAG was run?
Answer: The value was 0.087.

Question: For ACCACATC, which “PBM E-score” value is on record?
Answer: Its value is -0.13.

Question: For GCAATTCC, which “PBM E-score” value is on record?
Answer: Its value is 0.0596.

Question: With AGCAGTAC as the sequence, how does the “PBM E-score” value read?
Answer: The value was -0.0557.

Question: CTCTCGTA was tested. Which “PBM E-score” value did it give?
Answer: Its value is -0.107.

Question: For ACCACGTC, which “PBM E-score” value is on record?
Answer: Its value is -0.112.

Question: For ACCGTGAT, which “PBM E-score” value is on record?
Answer: The value was -0.0336.

Question: ACCGGGTG was tested. Which “PBM E-score” value did it give?
Answer: The value was -0.178.

Question: For ACCTGACG, which “PBM E-score” value is on record?
Answer: The value was -0.271.

Question: For GCACCCCC, which “PBM E-score” value is on record?
Answer: The value was -0.282.

Question: With AGCAACCT as the sequence, how does the “PBM E-score” value read?
Answer: Its value is -0.157.

Question: How did the “PBM E-score” value turn out when CTGACCAA was run?
Answer: The value was 0.0118.
